The source gives many values for each of these; only a part stands here.
Key:
[1] = system: Rat; test: concentration in brain after dosing; conditions: 10 min; dosed: 2-Methyltetrahydrofuran; 10 mg/kg; iv; Female; F344
[2] = system: Rat; test: concentration in brain after dosing; conditions: 0.75 h; dosed: 2-Methyltetrahydrofuran; 10 mg/kg; oral; Female; F344
[3] = system: Rat; test: concentration in brain after dosing; conditions: 1.5 h; dosed: 2-Methyltetrahydrofuran; 10 mg/kg; oral; Female; F344
[4] = system: Rat; test: concentration in brain after dosing; conditions: 10 min; dosed: 2-Methyltetrahydrofuran; 30 mg/kg; oral; Male; F344
[5] = system: Rat; test: concentration in brain after dosing; conditions: 0.75 h; dosed: 2-Methyltetrahydrofuran; 400 mg/kg; oral; Male; F344
[6] = system: Rat; test: concentration in brain after dosing; conditions: 3 h; dosed: 2-Methyltetrahydrofuran; 10 mg/kg; iv; Female; F344
[7] = system: Rat; test: concentration in brain after dosing; conditions: 4 h; dosed: 2-Methyltetrahydrofuran; 100 mg/kg; oral; Female; Harlan Sprague Dawley
[8] = system: Rat; test: concentration in brain after dosing; conditions: 2 min; dosed: 2-Methyltetrahydrofuran; 10 mg/kg; iv; Female; F344
[9] = system: Rat; test: concentration in plasma after dosing; conditions: 10 min; dosed: 2-Methyltetrahydrofuran; 100 mg/kg; oral; Female; Harlan Sprague Dawley
[10] = system: Rat; test: concentration in plasma after dosing; conditions: 20 min; dosed: 2-Methyltetrahydrofuran; 400 mg/kg; oral; Female; F344
[11] = system: Rat; test: concentration in plasma after dosing; conditions: 1 h; dosed: 2-Methyltetrahydrofuran; 30 mg/kg; oral; Female; F344
[12] = system: Rat; test: concentration in plasma after dosing; conditions: 0.75 h; dosed: 2-Methyltetrahydrofuran; 10 mg/kg; oral; Male; F344
[13] = system: Rat; test: concentration in plasma after dosing; conditions: 2.5 h; dosed: 2-Methyltetrahydrofuran; 10 mg/kg; oral; Female; F344
[14] = system: Rat; test: concentration in plasma after dosing; conditions: 10 min; dosed: 2-Methyltetrahydrofuran; 10 mg/kg; oral; Male; F344
[15] = system: Rat; test: concentration in plasma after dosing; conditions: 8 min; dosed: 2-Methyltetrahydrofuran; 30 mg/kg; oral; Male; F344
[16] = system: Rat; test: concentration in plasma after dosing; conditions: 2 h; dosed: 2-Methyltetrahydrofuran; 10 mg/kg; oral; Male; F344
[17] = system: Rat; test: concentration in plasma after dosing; conditions: 1 h; dosed: 2-Methyltetrahydrofuran; 10 mg/kg; iv; Male; F344
[18] = system: Rat; test: concentration in plasma after dosing; conditions: 8 min; dosed: 2-Methyltetrahydrofuran; 10 mg/kg; oral; Female; F344
[19] = system: Rat; test: concentration in plasma after dosing; conditions: dosed: Bromochloroacetic acid, 40 mg/kg, oral, Female, F344
[20] = system: Rat; test: concentration in plasma after dosing; conditions: 40 min; dosed: Bromochloroacetic acid; 10 mg/kg; iv; Male; F344
[21] = system: Rat; test: concentration in plasma after dosing; conditions: dosed: Bromochloroacetic acid, 40 mg/kg, oral, Male, F344
[22] = system: Rat; test: concentration in plasma after dosing; conditions: 3 h; dosed: Fluorotelomer alcohol 8+2; 24 mg/kg; oral; Male; Harlan Sprague Dawley
[23] = system: Rat; test: concentration in plasma after dosing; conditions: dosed: Fluorotelomer alcohol 8+2, 160 mg/kg, oral, Female, Harlan Sprague Dawley
[24] = system: Rat; test: concentration in plasma after dosing; conditions: dosed: Formamide, 90 mg/kg, iv, Male, Harlan Sprague Dawley
[25] = system: Rat; test: concentration in plasma after dosing; conditions: dosed: Formamide, 30 mg/kg, iv, Female, F344
[26] = system: Rat; test: concentration in plasma after dosing; conditions: dosed: Formamide, 90 mg/kg, iv, Male, Harlan Sprague Dawley; remark: listed apart in the source
[27] = system: Rat; test: concentration in plasma after dosing; conditions: dosed: Formamide, 300 mg/kg, oral, Female, F344
[28] = system: Rat; test: concentration in plasma after dosing; conditions: dosed: Formamide, 90 mg/kg, iv, Male, Harlan Sprague Dawley; remark: listed apart in the source
[29] = system: Rat; test: concentration in plasma after dosing; conditions: 5 h; dosed: Formamide; 30 mg/kg; iv; Female; F344
[30] = system: Rat; test: concentration in plasma after dosing; conditions: 40 min; dosed: Pyridine; 50 mg/kg; oral; Female; F344
[31] = system: Rat; test: concentration in plasma after dosing; conditions: 40 min; dosed: Pyridine; 10 mg/kg; oral; Male; Harlan Sprague Dawley
[32] = system: Rat; test: concentration in plasma after dosing; conditions: dosed: Pyridine, 5 mg/kg, iv, Female, F344
[33] = system: Rat; test: concentration in plasma after dosing; conditions: 4 h; dosed: Pyridine; 10 mg/kg; oral; Male; Harlan Sprague Dawley
[34] = system: Rat; test: concentration in plasma after dosing; conditions: 2 min; dosed: Pyridine; 10 mg/kg; oral; Male; Harlan Sprague Dawley
[35] = system: Rat; test: concentration in plasma after dosing; conditions: 9 h; dosed: Pyridine; 200 mg/kg; oral; Female; F344
[36] = system: Rat; test: concentration in plasma after dosing; conditions: dosed: Pyridine, 100 mg/kg, oral, Male, F344
[37] = system: Rat; test: concentration in plasma after dosing; conditions: 5 h; dosed: Pyridine; 200 mg/kg; oral; Female; F344

CC1CCCO1 (configuration not stated) [2-Methyltetrahydrofuran]
Conditions	concentration in brain [µg/g]	concentration in plasma [ng/mL]
[1]	6.07	–
[2]	1.04	–
[3]	0.159	–
[4]	9.4	–
[5]	126	–
[6]	0.0207	–
[7]	35.7	–
[8]	7.86	–
[9]	–	48900
[10]	–	184000
[11]	–	13500
[12]	–	1680
[13]	–	59.6
[14]	–	4650
[15]	–	9560
[16]	–	153
[17]	–	1850
[18]	–	3900

O=C(O)C(Cl)Br (configuration not stated) [Bromochloroacetic acid]
concentration in plasma [ng/mL]
Conditions	2 h	6 h	10 min	20 min
[19]	–	660	–	9880
[21]	3220	–	5970	–

Conditions	concentration in plasma [ng/mL]
[20]	188

OCCC(F)(F)C(F)(F)C(F)(F)C(F)(F)C(F)(F)C(F)(F)C(F)(F)C(F)(F)F [Fluorotelomer alcohol 8+2]
Conditions	concentration in plasma [ng/mL]
[22]	143

[23]
Conditions	concentration in plasma [ng/mL]
1 h	1800
24 h	231

NC=O [Formamide]
Conditions	concentration in plasma [ng/mL]
[24], 10 min	90100
[24], 18 h	22500
[25], 5 min	39600
[25], 36 h	3800
[26], 5 h	105000
[26], 72 h	2600
[27], 10 min	113000
[27], 20 h	151000
[28], 5 min	140000
[28], 36 h	11500

Conditions	concentration in plasma [ng/mL]
[29]	31100

c1ccncc1 [Pyridine]
Conditions	concentration in plasma [ng/mL]
[30]	26900
[31]	4300
[33]	384
[34]	5020
[35]	77900
[37]	83400

concentration in plasma [ng/mL]
Conditions	0.05 h	4 h	5 min
[32]	4810	2300	–
[36]	–	60800	21200

Source: EPA's CvTdb concentration-time database
